In patent publication EP2698431B1 (Chugai Seiyaku Kabushiki Kaisha, dated 2020):

Key:
Assay in all cases: SPR pH7.4
mouse FcγRIIb = target: T1, mouse FcγRIIb (mouse, UniProt P08101 40-217, limits assumed)
T1 construct: bought; also called mFcgRIIb; mFcgRII
T1 sequence (looked up): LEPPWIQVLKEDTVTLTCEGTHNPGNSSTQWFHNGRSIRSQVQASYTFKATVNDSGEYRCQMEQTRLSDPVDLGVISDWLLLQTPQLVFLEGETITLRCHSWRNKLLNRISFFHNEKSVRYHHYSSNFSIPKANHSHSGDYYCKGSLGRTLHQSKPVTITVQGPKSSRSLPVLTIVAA

mouse FcγRI = target: T2, mouse FcγRI (mouse, UniProt P26151 25-297)
T2 construct: bought; also called mFcgRI
T2 sequence (looked up): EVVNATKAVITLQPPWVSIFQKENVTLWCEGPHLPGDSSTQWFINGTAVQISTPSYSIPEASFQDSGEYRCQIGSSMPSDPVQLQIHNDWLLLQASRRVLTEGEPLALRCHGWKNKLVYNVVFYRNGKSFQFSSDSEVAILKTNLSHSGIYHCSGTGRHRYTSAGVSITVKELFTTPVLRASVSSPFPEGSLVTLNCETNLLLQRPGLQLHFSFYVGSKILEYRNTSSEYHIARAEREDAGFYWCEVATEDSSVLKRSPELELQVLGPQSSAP

mouse FcγRIV = target: T3, mouse FcγRIV (mouse, UniProt A0A0B4J1G0 21-203)
T3 construct: bought; also called mFcgRIV
T3 sequence: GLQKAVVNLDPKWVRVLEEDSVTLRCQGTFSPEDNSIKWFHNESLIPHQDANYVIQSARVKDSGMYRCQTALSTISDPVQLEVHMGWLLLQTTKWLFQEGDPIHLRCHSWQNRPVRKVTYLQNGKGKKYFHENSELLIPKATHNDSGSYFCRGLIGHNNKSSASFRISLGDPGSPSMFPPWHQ

mouse FcγRIII = target: T4, mouse FcγRIII (mouse, UniProt P08508 31-215)
T4 construct: bought; also called mFcgRIII
T4 sequence (looked up): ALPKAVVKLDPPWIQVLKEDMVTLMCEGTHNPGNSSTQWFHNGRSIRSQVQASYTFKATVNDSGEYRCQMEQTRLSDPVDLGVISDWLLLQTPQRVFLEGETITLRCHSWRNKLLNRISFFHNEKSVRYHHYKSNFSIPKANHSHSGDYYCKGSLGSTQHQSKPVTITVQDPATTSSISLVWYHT

B1: VH3/L(WT)-IgG1-F760 (antibody)
chain 1: QVQLQESGPGLVKPSETLSLTCAVSGHSISHDHAWSWVRQPPGEGLEWIGFISYSGITNYNPSLQGRVTISRDNSKNTLYLQMNSLRAEDTAVYYCARSLARTTAMDYWGEGTLVTVSS[human IgG1 constant region with L235R S239K (EU numbers) omitted here]
chain 2: DIQMTQSPSSLSASVGDRVTITCRASQDISSYLNWYQQKPGKAPKLLIYYTSRLHSGVPSRFSGSGSGTDFTFTISSLQPEDIATYYCQQGNTLPYTFGQGTKVEIKRTVAAPSVFIFPPSDEQLKSGTASVVCLLNNFYPREAKVQWKVDNALQSGNSQESVTEQDSKDSTYSLSSTLTLSKADYEKHKVYACEVTHQGLSSPVTKSFNRGEC
Q: What does the source list for B1?
A: binding amount (mouse FcγRIIb): -2.2 RU; binding amount (mouse FcγRI): -1.9 RU; binding amount (mouse FcγRIV): 8.1 RU; binding amount (mouse FcγRIII): -15.1 RU
